Source: paper PMC4336329 (PLoS ONE, 2015)
About 2,200 (0.71%) of roughly 310,000 compounds showed an effect of 50% or more. Effects have a minus sign here. The list shows a part of the results.

These molecules were tested against human ether-à-go-go-related gene (hERG) potassium channel (human, UniProt Q12809) (assay: primary screen, population patch clamp on CHO cells stably expressing hERG).
Chain of human ether-à-go-go-related gene (hERG) potassium channel (Q12809 whole entry, looked up): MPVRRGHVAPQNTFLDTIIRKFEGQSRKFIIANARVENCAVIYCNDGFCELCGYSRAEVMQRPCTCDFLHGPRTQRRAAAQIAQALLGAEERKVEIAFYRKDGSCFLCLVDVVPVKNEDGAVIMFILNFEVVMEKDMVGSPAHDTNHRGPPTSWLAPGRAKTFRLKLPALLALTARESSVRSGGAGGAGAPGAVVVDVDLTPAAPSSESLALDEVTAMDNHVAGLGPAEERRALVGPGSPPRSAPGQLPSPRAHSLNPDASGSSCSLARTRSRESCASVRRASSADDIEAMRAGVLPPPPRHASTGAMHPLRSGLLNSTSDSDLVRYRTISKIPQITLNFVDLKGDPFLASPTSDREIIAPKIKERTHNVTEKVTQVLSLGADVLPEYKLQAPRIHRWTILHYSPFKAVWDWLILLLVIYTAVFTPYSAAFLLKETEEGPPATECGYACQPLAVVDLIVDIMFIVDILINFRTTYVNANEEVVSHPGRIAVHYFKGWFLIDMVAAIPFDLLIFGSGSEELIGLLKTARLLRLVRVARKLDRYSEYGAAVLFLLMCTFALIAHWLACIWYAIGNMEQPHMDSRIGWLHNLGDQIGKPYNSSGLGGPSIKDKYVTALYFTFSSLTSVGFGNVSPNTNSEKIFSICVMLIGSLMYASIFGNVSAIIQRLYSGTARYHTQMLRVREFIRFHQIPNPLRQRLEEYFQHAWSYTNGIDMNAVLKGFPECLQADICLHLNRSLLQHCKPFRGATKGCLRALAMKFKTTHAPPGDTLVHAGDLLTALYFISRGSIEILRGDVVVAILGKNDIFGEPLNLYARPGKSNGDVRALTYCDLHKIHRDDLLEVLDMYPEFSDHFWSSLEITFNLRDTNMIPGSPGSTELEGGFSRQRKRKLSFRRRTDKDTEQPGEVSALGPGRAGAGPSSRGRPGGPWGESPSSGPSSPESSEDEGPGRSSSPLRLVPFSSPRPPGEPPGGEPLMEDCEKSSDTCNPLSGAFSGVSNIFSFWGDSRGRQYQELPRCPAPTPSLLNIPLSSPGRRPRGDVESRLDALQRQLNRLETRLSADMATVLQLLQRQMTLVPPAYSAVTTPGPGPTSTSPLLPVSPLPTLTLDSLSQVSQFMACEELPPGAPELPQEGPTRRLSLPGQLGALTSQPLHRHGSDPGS

**Q.** How did the “hERG current change (%, negative = inhibition) at 1uM” value turn out when `COc1cc(-n2nnnc2SC)c(OC)cc1Cl` was run?
**A.** 21%

**Q.** For `CCOC(=O)CSc1nc(C2CC2)cc(-c2ccc(F)cc2)c1C#N`, which “hERG current change (%, negative = inhibition) at 1uM” value is on record?
**A.** 10.3%

**Q.** How did the “hERG current change (%, negative = inhibition) at 1uM” value turn out when `O=C(c1cc2cc(F)ccc2[nH]1)N1CCN(c2cccc(Cl)c2)CC1` was run?
**A.** 11.1%

**Q.** For `Cc1ccc(Cl)cc1NC(=S)N(Cc1ccccc1)Cc1cccnc1`, which “hERG current change (%, negative = inhibition) at 1uM” value is on record?
**A.** 12%

**Q.** With `O=C(Nc1cccc(F)c1)C1CCN(C(=O)NCc2ccccc2)CC1` as the molecule, how does the “hERG current change (%, negative = inhibition) at 1uM” value read?
**A.** 3.89%

**Q.** `CN(CC(=O)N1CCN(c2cccc(Cl)c2)CC1)S(=O)(=O)c1cnc[nH]1` was tested. Which “hERG current change (%, negative = inhibition) at 1uM” value did it give?
**A.** -2.33%

**Q.** With `N/C(=N\OC(=O)C12CC3CC(CC(C3)C1)C2)c1ccccc1` as the molecule, how does the “hERG current change (%, negative = inhibition) at 1uM” value read?
**A.** -4.05%

**Q.** With `O=C(O)/C=C/C(=O)Nc1ccc(Oc2ccccc2)cc1` as the molecule, how does the “hERG current change (%, negative = inhibition) at 1uM” value read?
**A.** 12.7%

**Q.** Which “hERG current change (%, negative = inhibition) at 1uM” value does the source give for `COc1ccc(-n2c(SCC(=O)Nc3ccccc3)nnc2-c2ccc(NS(=O)(=O)c3ccc(C)cc3)cc2)cc1` here?
**A.** 9.11%

**Q.** `Cc1ccc(C(=O)N/C(=C/c2ccco2)C(=O)NCCCn2ccnc2)cc1` was tested. Which “hERG current change (%, negative = inhibition) at 1uM” value did it give?
**A.** -62.5%

**Q.** For `CC(C)Cc1c(O)nc(SCCN2CCOCC2)[nH]c1=O.Cl`, which “hERG current change (%, negative = inhibition) at 1uM” value is on record?
**A.** 22.2%

**Q.** For `NC(Cc1ccc(O)c([N+](=O)[O-])c1)C(=O)O` (stereo not shown), which “hERG current change (%, negative = inhibition) at 1uM” value is on record?
**A.** 9.13%

**Q.** With `Cc1nnc(N/N=C/c2ccc(Br)cc2)n1N.Cl` as the molecule, how does the “hERG current change (%, negative = inhibition) at 1uM” value read?
**A.** 3.68%

**Q.** `COc1ccc(CCNC(=O)c2ccc3nc(N4CCOCC4)sc3c2)cc1OC` was tested. Which “hERG current change (%, negative = inhibition) at 1uM” value did it give?
**A.** 4.99%

**Q.** For `Cc1ccccc1Nc1nnc(SCC(=O)c2c(N)n(C)c(=O)n(C)c2=O)s1`, which “hERG current change (%, negative = inhibition) at 1uM” value is on record?
**A.** 2.74%

**Q.** For `CCOC(=O)CSc1nc2c(sc3ccccc32)c(=O)n1CCCN1CCOCC1`, which “hERG current change (%, negative = inhibition) at 1uM” value is on record?
**A.** -34%

**Q.** For `COc1cc2c(cc1OC)-c1cc3ccc4c(c3c[n+]1CC2)OCO4`, which “hERG current change (%, negative = inhibition) at 1uM” value is on record?
**A.** 12%

**Q.** For `CCSC1=NCCN1C(=O)c1ccc(S(=O)(=O)N(CC)CC)cc1`, which “hERG current change (%, negative = inhibition) at 1uM” value is on record?
**A.** 11.3%

**Q.** With `CN(CC(=O)Nc1ccc(F)cc1)C(=O)Cn1cnc2ccc(Cl)cc2c1=O` as the molecule, how does the “hERG current change (%, negative = inhibition) at 1uM” value read?
**A.** 9.11%

**Q.** Which “hERG current change (%, negative = inhibition) at 1uM” value does the source give for `C[C@H](NC(=O)c1nc[nH]c1C(=O)N1CCN(C(=O)OC(C)(C)C)CC1)c1ccccc1` here?
**A.** 10.5%

**Q.** For `CC1CN(C(=O)CNC(=O)Cc2cccc3ccccc23)CC(C)O1` (stereo not shown), which “hERG current change (%, negative = inhibition) at 1uM” value is on record?
**A.** 6.58%

**Q.** For `N#C/C(=C\Nc1ccc2c(c1)OCCO2)C(=O)NCc1ccco1`, which “hERG current change (%, negative = inhibition) at 1uM” value is on record?
**A.** 1.22%

**Q.** With `OCCCc1nc2n(n1)C(c1cccs1)C=C(c1ccc(Br)cc1)N2` (stereo not shown) as the molecule, how does the “hERG current change (%, negative = inhibition) at 1uM” value read?
**A.** 12.6%

**Q.** How did the “hERG current change (%, negative = inhibition) at 1uM” value turn out when `CCOC(=O)c1c(C)[nH]c(C(=O)COC(=O)c2ccc(N3CCCC3=O)cc2)c1C` was run?
**A.** -2.51%

**Q.** How did the “hERG current change (%, negative = inhibition) at 1uM” value turn out when `CCOCCc1nn2c(=O)cc(CSCC(=O)Nc3cccc(C)c3C)nc2s1` was run?
**A.** 7.58%

**Q.** Which “hERG current change (%, negative = inhibition) at 1uM” value does the source give for `COc1ccc(-n2c(SCc3ccccn3)nc3c(c2=O)SCC3)cc1OC` here?
**A.** 6.15%

**Q.** Which “hERG current change (%, negative = inhibition) at 1uM” value does the source give for `CCCCNC(=O)c1cccc(C(=O)NCCCC)c1` here?
**A.** 1.41%

**Q.** `CN(CC(=O)Nc1ccc(F)cc1)C(=O)COc1ccccc1Cc1ccccc1` was tested. Which “hERG current change (%, negative = inhibition) at 1uM” value did it give?
**A.** 5.4%

**Q.** Which “hERG current change (%, negative = inhibition) at 1uM” value does the source give for `O=C(CCn1c(=O)oc2ccc(Cl)cc21)N1CCN(c2ccccc2)CC1` here?
**A.** 6.47%

**Q.** With `COc1ccc([C@@H]2[C@@H]3C(=O)N(C(C)(C)C)C(=O)[C@@H]3[C@]3(Cc4ccccc4)C(=O)N(c4ccc(C)cc4)C(=O)N23)cc1` as the molecule, how does the “hERG current change (%, negative = inhibition) at 1uM” value read?
**A.** 7.93%

**Q.** For `CCOC(=O)CC(NC(=O)Cc1ccc(F)cc1)c1ccccc1Cl` (stereo not shown), which “hERG current change (%, negative = inhibition) at 1uM” value is on record?
**A.** 11.8%

**Q.** How did the “hERG current change (%, negative = inhibition) at 1uM” value turn out when `O=C1c2ccccc2C(Nc2cccc(C(F)(F)F)c2)N1Cc1ccco1` (stereo not shown) was run?
**A.** 7.35%

**Q.** How did the “hERG current change (%, negative = inhibition) at 1uM” value turn out when `CCOC(=O)CSc1nc2sc3c(c2c(=O)n1CC)CC(C)(C)OC3` was run?
**A.** -2.39%

**Q.** For `Cc1c(C(=O)O)oc2ccc(S(=O)(=O)NCCC3=CCCCC3)cc12`, which “hERG current change (%, negative = inhibition) at 1uM” value is on record?
**A.** 3.55%

**Q.** How did the “hERG current change (%, negative = inhibition) at 1uM” value turn out when `CCN1CCN(c2ccc(S(=O)(=O)N3CCOCC3)cc2NC(=O)c2ccccc2OC(F)F)CC1` was run?
**A.** -6.24%

**Q.** For `CCOC(=O)CSc1nncc2ccc(OC)c(OC)c12`, which “hERG current change (%, negative = inhibition) at 1uM” value is on record?
**A.** 8.7%

**Q.** `CSc1nnc([C@@H](NC(=O)OC(C)(C)C)C(C)C)o1` was tested. Which “hERG current change (%, negative = inhibition) at 1uM” value did it give?
**A.** 5.48%

**Q.** With `CCCc1nc(Nc2nc3ccccc3o2)nc(C)c1C(=O)OCC` as the molecule, how does the “hERG current change (%, negative = inhibition) at 1uM” value read?
**A.** 6.25%

**Q.** How did the “hERG current change (%, negative = inhibition) at 1uM” value turn out when `CCc1ccccc1NC(=O)c1cccc(Oc2ccc([N+](=O)[O-])cc2Cl)c1` was run?
**A.** 8.81%

**Q.** With `Cc1nc([N+](=O)[O-])c(C(=O)OCc2ccccc2C#N)n1C` as the molecule, how does the “hERG current change (%, negative = inhibition) at 1uM” value read?
**A.** 6.21%

**Q.** For `COc1ccc(-n2c(SCC(N)=O)nnc2-c2ccc(NS(=O)(=O)c3ccc(C)cc3)cc2)cc1`, which “hERG current change (%, negative = inhibition) at 1uM” value is on record?
**A.** 20.3%

**Q.** For `Cc1noc(C)c1COC(=O)COc1cccc2c1OC(C)(C)C2`, which “hERG current change (%, negative = inhibition) at 1uM” value is on record?
**A.** 10.7%

**Q.** For `CCn1c(SCC(=O)c2ccc(OC)cc2)nnc1C1CC1`, which “hERG current change (%, negative = inhibition) at 1uM” value is on record?
**A.** 14.1%

**Q.** How did the “hERG current change (%, negative = inhibition) at 1uM” value turn out when `CN(C)S(=O)(=O)c1ccc(NC(=O)COC(=O)c2ccccn2)cc1` was run?
**A.** 11.9%

**Q.** Which “hERG current change (%, negative = inhibition) at 1uM” value does the source give for `COCCN(C(=O)Nc1ccc(F)cc1F)c1nc2ccccc2s1` here?
**A.** 15.8%

**Q.** `CCOC(=O)C1=C(C)NC(=O)NC1c1ccc(-c2ccccc2F)o1` (stereo not shown) was tested. Which “hERG current change (%, negative = inhibition) at 1uM” value did it give?
**A.** 5.14%

**Q.** `Cc1ccc(OCCSc2ncnc3nc[nH]c23)cc1` was tested. Which “hERG current change (%, negative = inhibition) at 1uM” value did it give?
**A.** 8.17%

**Q.** Which “hERG current change (%, negative = inhibition) at 1uM” value does the source give for `COc1ccc(Cl)cc1NC(=O)CNc1ccccc1CN(C)C1CCCCC1` here?
**A.** 17.1%

**Q.** How did the “hERG current change (%, negative = inhibition) at 1uM” value turn out when `O=C(Nc1ccc(-c2ccc([N+](=O)[O-])cc2)cc1)c1ccccc1F` was run?
**A.** 15.3%

**Q.** How did the “hERG current change (%, negative = inhibition) at 1uM” value turn out when `Nc1ncc(Br)cc1S(=O)(=O)NCCC(=O)N1CCN(c2ncccn2)CC1` was run?
**A.** -11.3%

**Q.** With `O=C1c2ccccc2C(=O)N1c1ncn[nH]1` as the molecule, how does the “hERG current change (%, negative = inhibition) at 1uM” value read?
**A.** 12.7%

**Q.** Which “hERG current change (%, negative = inhibition) at 1uM” value does the source give for `COc1ccc(/C(C)=N/NC(=O)c2cccc(S(=O)(=O)N3CCCC3)c2)c(O)c1` here?
**A.** 11.5%

**Q.** `CCc1ccccc1N(C(=O)Cn1nnc2ccccc21)C(C(=O)NCCOC)c1ccco1` (stereo not shown) was tested. Which “hERG current change (%, negative = inhibition) at 1uM” value did it give?
**A.** 2.16%

**Q.** With `COCCCN(C(=O)Cc1ccc(Cl)c(Cl)c1)c1c(N)n(Cc2ccccc2)c(=O)[nH]c1=O` as the molecule, how does the “hERG current change (%, negative = inhibition) at 1uM” value read?
**A.** 11.1%

**Q.** With `Cc1cccc(N(CC(=O)Nc2ccccc2-c2ccccc2)S(=O)(=O)c2ccccc2)c1C` as the molecule, how does the “hERG current change (%, negative = inhibition) at 1uM” value read?
**A.** 10.5%
